# Experimental data as given in ChEMBL document CHEMBL4888484, “Replenishing the malaria drug discovery pipeline: Screening and hit evaluation of the MMV Hit Generation Library 1 (HGL1) against asexual blood stage Plasmodium falciparum ,using a nano luciferase reporter read-out” (2022).
# Screen size: about 150,000 compounds; about 540 (0.36%) showed an effect of 50% or more. Some of the results follow.
# System: Plasmodium falciparum
# Test: Primary screen in NF54 nanoGlo assay, in single point, at 2uM, 72h; a lower Z score goes with more inhibition
# Format: functional, Erythrocyte
# Settings: timepoint 72 hour
Structure (SMILES),% Inhibition,Z score
Cc1cc(C(=O)Nc2c(-c3cnn(C)c3)nc3n2CCCC3)ns1,-4%,0.41
CN(Cc1ccccc1)c1ncc2c(n1)CC(C)(C)C[C@@H]2NC1CCOCC1,-21%,1.82
CC(NC(=O)N1CCC(C(N)=O)CC1)C1CC1c1ccccc1 (stereo not drawn),-12%,1.9
O=C(CN1C(=O)c2ccccc2C1=O)N1CCC(c2ccccc2)=N1,-4%,0.57
O=C(Nc1nncs1)N(CC(F)(F)F)C1CCCC1,24%,-2.74
C[C@@H]1COCCN1Cc1cn(Cc2nccn2CC(F)(F)F)nn1,0%,-0.05
CCc1nnc(CNC(=O)C[C@H]2CCCOC2)o1,-10%,1.6
CCC[C@H]1CN(Cc2cnc(N3CCCC3)s2)C[C@@H]1NS(C)(=O)=O,5%,-0.91
O=C(NC1(c2ccc(F)cn2)CC1)c1ccc(OC(F)F)nc1,-4%,0.59
C[C@H](Oc1ccccc1F)c1nnc2n1CCCC2,-9%,1.39
C[C@@H](c1ccc(C(=O)N2CCc3ccccc3C2)o1)N1CCCCC1,-16%,1.57
O=C(C[C@H]1COCCN1C(=O)CCc1cccnc1)c1ccccc1,7%,-0.93
COc1ccc(CNC(=O)N2CC[C@H](Cc3nccs3)C2)nc1,-9%,1.34
CC(C)n1cnc2ccc(CNC(=O)[C@H]3CCc4nncn4C3)cc21,1%,-0.12
CNC(=O)c1nc(CN2C(=O)COc3ccc(F)cc32)no1,4%,-0.58
O=C(CCN1CCN(c2ccccc2)CC1)NCc1ccc(O)nc1,-16%,2.31
C[C@@H](C(=O)NC(C)(C)C)N1CCN(c2nc[nH]n2)CC1,-9%,1.05
C#CC(C)(C)OC(=O)Nc1ccccc1,-9%,1.3
O=C(CCc1ccncn1)N[C@H]1CCN(C(=O)CCc2ccccc2)C1,-9%,1.18
C[C@@H](C(=O)N(C)C)n1cnc(-c2ccccc2)c1-c1ccsc1,-9%,1
O=C1NCC[C@@H]1Nc1cccc(-c2ccc3c(c2)CCO3)c1,-10%,0.91
O=C(NCCn1cccnc1=O)c1ccc(S(=O)(=O)N2CCOCC2)cc1,17%,-2.2
CC1(C)CNC(=O)[C@H]1NS(=O)(=O)c1ccc(Cl)s1,5%,-0.51
N#Cc1ccc(CN2C(=O)C3CCCCC3C2=O)cc1 (stereo not drawn),8%,-0.87
COc1ccc(C2=C[C@@H](c3ccccc3OC)n3nnnc3N2)cc1,11%,-1.33
Cc1ccsc1CNC(=O)Cn1ncc(=O)c2ccccc21,6%,-0.84
Cc1cccnc1-n1nc(C2CC2)nc1[C@H](C)n1cnc2ccccc21,-10%,1.18

Structure (SMILES),% Inhibition,Z score
CC(C)Cn1cncc1CNc1nc(-c2ccncc2)nc2c1CNC2,-1%,0.17
COc1ccc(S(=O)(=O)NCc2ccnc(N3CCN(c4ccc(F)cc4)CC3)c2)cc1Cl,-16%,1.56
Cc1nn(C)c(C)c1S(=O)(=O)N1CCC(N2CCc3cc(F)ccc32)CC1,2%,-0.31
CCO[C@H]1COC[C@@H]1Nc1ccnc2cc(Cl)ccc12,16%,-2.76
CCc1c(C)sc2ncnc(N[C@H]3CCOC[C@@H]3OCCO)c12,-9%,1.65
Cc1cc(CNC(=O)N2CCn3ncnc3C2)cc(N2CCCC2)n1,4%,-0.47
CN(CC1CC1)C(=O)CN1CCCN(C(=O)c2cccc(F)c2)CC1,-4%,0.73
CC(C)c1nccn1C1CN(C(=O)c2ccc3ccccc3n2)C1,-17%,2.09
C[C@@H](NC(=O)c1ccncc1)c1ccc(Cl)c(Cl)c1,-3%,0.58
O=C(NCc1ccc(F)cc1)N1CCCN(C2CCC2)CC1,-13%,2.25
CCOC(=O)N1CCC(NC(=O)c2coc(NC(=O)c3cnccn3)n2)CC1,9%,-1.29
CNC(=O)COc1ccc(C[C@H]2CCCS(=O)(=O)C2)cc1,-3%,0.61
O=C(Cc1cccc(Cl)c1)N1C[C@@H](CN2CCCCC2)[C@@H](CO)C1,2%,-0.28
O=C1C[C@H](NC(=O)c2cnc[nH]2)c2ccccc2N1,-14%,1.89
O=C1C2CC2C(=O)N1CC1CC(F)(F)C1 (stereo not drawn),-23%,2.69
CN1CCO[C@H](C(=O)N2CCCCCCC2)C1,-12%,1.65
CCCCN1C(=O)c2ccc(C(=O)N3CCC[C@H]3C(=O)Nc3nc4ccccc4s3)cc2C1=O,8%,-0.74
CN(Cc1nnc(C2CC2)o1)[C@H]1CCCC[C@H]1C(F)(F)F,17%,-2.1
CCCS(=O)(=O)N[C@H]1CO[C@@H](CN2CCC(F)(F)C2)[C@@H]1O,35%,-3.95
COC(=O)C1=C(C(=O)OC)SC(=C2C(=S)C(C)(C)N(C(=O)c3ccccc3)c3ccc(OC(=O)c4ccccc4)cc32)S1,-4%,0.43
CN(Cc1noc(C2CCC2)n1)C(=O)NCC[C@@H]1CCCN2CCCC[C@H]12,-2%,0.38
O=C(Cn1cnc2ccc(Cl)cc2c1=O)NCCCc1ccccc1,2%,-0.27
O=C(Cc1ccccc1Cl)N1CCC(C2(c3cccnc3)NC(=O)N(CC3CCCO3)C2=O)CC1 (stereo not drawn),-2%,0.3
CCc1nc(CC(=O)N2CCCC2(C)C)cs1,-20%,2.76
O=S(=O)(N[C@H](CO)CC(F)(F)F)c1ccccc1,-7%,1.07
O=C(O)c1ncsc1Nc1cccnc1,-2%,0.31
Cc1ccc(CN(Cc2ccc(F)cc2)C(=O)CN(CC(C)C)C(=O)c2ccccc2C)o1,-10%,1.05
